According to the supplement of paper PMC8728848:
The list shows a part of the results.

Columns and labels:
Experiment in all cases: glycan array binding signal (z-score within array); higher = stronger binding
Settings in all cases: glycan notation: IUPAC condensed, linker removed
[1] = molecular target: Fuc(a1-2)Gal
Summary of the method: (§1)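 Columns mapping to the same glycan were averaged after glycan names were converted to IUPAC-condensed notation. The data come from 3228 arrays in the Consortium for Functional Glycomics database, limited to those with an available protein sequence. Binding is reported as a within-array Z-score averaged across arrays of one protein sequence and across linkers.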

[2] = molecular target: Fuc(a1-2)Gal(b1-3)GalNAc
Summary of the method: as §1

[3] = molecular target: Fuc(a1-2)Gal(b1-3)GalNAc(a1-3)[Fuc(a1-2)]Gal(b1-4)Glc
Summary of the method: as §1

[4] = molecular target: Fuc(a1-2)Gal(b1-3)GalNAc(a1-3)[Fuc(a1-2)]Gal(b1-4)GlcNAc
Summary of the method: as §1

[5] = molecular target: Fuc(a1-2)Gal(b1-3)GalNAc(b1-3)Gal
Summary of the method: as §1

[6] = molecular target: Fuc(a1-2)Gal(b1-3)GalNAc(b1-3)Gal(a1-4)Gal(b1-4)Glc
Summary of the method: as §1

[7] = molecular target: Fuc(a1-2)Gal(b1-3)GalNAc(b1-4)[Neu5Ac(a2-3)]Gal(b1-4)Glc
Summary of the method: as §1

[8] = molecular target: Fuc(a1-2)Gal(b1-3)GlcNAc
Summary of the method: as §1

[9] = molecular target: Fuc(a1-2)Gal(b1-3)GlcNAc(b1-2)Man(a1-3)[Fuc(a1-2)Gal(b1-3)GlcNAc(b1-2)Man(a1-6)]Man(b1-4)GlcNAc(b1-4)GlcNAc
Summary of the method: as §1

[10] = molecular target: Fuc(a1-2)Gal(b1-3)GlcNAc(b1-2)Man(a1-3)[Fuc(a1-2)Gal(b1-3)GlcNAc(b1-2)Man(a1-6)]Man(b1-4)GlcNAc(b1-4)[Fuc(a1-6)]GlcNAc
Summary of the method: as §1

[11] = molecular target: Fuc(a1-2)Gal(b1-3)GlcNAc(b1-3)Gal(b1-4)Glc
Summary of the method: as §1

[12] = molecular target: Fuc(a1-2)Gal(b1-3)GlcNAc(b1-3)GalNAc
Summary of the method: as §1

[13] = molecular target: Fuc(a1-2)Gal(b1-3)GlcNAc(b1-3)[Fuc(a1-2)Gal(b1-3)GlcNAc(b1-6)]GalNAc
Summary of the method: as §1

[14] = molecular target: Fuc(a1-2)Gal(b1-3)GlcNAc(b1-3)[Gal(b1-4)GlcNAc(b1-6)]Gal(b1-4)Glc
Summary of the method: as §1

[15] = molecular target: Fuc(a1-2)Gal(b1-3)GlcNAc(b1-3)[Neu5Ac(a2-6)Gal(b1-4)GlcNAc(b1-6)]Gal(b1-4)Glc
Summary of the method: as §1

[16] = molecular target: Fuc(a1-2)Gal(b1-3)GlcNAc6S
Summary of the method: as §1

[17] = molecular target: Fuc(a1-2)Gal(b1-3)[Fuc(a1-4)]GlcNAc
Summary of the method: as §1

[18] = molecular target: Fuc(a1-2)Gal(b1-3)[Fuc(a1-4)]GlcNAc(b1-2)Man(a1-3)[Fuc(a1-2)Gal(b1-3)[Fuc(a1-4)]GlcNAc(b1-2)Man(a1-3)]Man(b1-4)GlcNAc(b1-4)GlcNAc
Summary of the method: as §1

[19] = molecular target: Fuc(a1-2)Gal(b1-3)[Fuc(a1-4)]GlcNAc(b1-2)Man(a1-3)[Fuc(a1-2)Gal(b1-3)[Fuc(a1-4)]GlcNAc(b1-2)Man(a1-6)]Man(b1-4)GlcNAc(b1-4)[Fuc(a1-6)]GlcNAc(b1-4)[Fuc(a1-6)]GlcNAc
Summary of the method: as §1

[20] = molecular target: Fuc(a1-2)Gal(b1-3)[Fuc(a1-4)]GlcNAc(b1-3)[Fuc(a1-3)[Gal(b1-4)]GlcNAc(b1-6)]Gal(b1-4)Glc
Summary of the method: as §1

[21] = molecular target: Fuc(a1-2)Gal(b1-3)[Fuc(a1-4)]GlcNAc(b1-3)[Gal(b1-4)GlcNAc(b1-6)]Gal(b1-4)Glc
Summary of the method: as §1

[22] = molecular target: Fuc(a1-2)Gal(b1-4)Fuc(a1-3)]GlcNAc(b1-2)Man(a1-3)[Fuc(a1-2)Gal(b1-4)[Fuc(a1-3)]GlcNAc(b1-2)Man(a1-6)]Man(b1-4)GlcNAc(b1-4)GlcNAc
Summary of the method: as §1

[23] = molecular target: Fuc(a1-2)Gal(b1-4)Glc
Summary of the method: as §1

[24] = molecular target: Fuc(a1-2)Gal(b1-4)Glc6S
Summary of the method: as §1

[25] = molecular target: Fuc(a1-2)Gal(b1-4)GlcNAc
Summary of the method: as §1

[26] = molecular target: Fuc(a1-2)Gal(b1-4)GlcNAc(b1-2)Man
Summary of the method: as §1

[27] = molecular target: Fuc(a1-2)Gal(b1-4)GlcNAc(b1-2)Man(a1-3)[Fuc(a1-2)Gal(b1-4)GlcNAc(b1-2)Man(a1-6)]Man(b1-4)GlcNAc(b1-4)GlcNAc
Summary of the method: as §1

[28] = molecular target: Fuc(a1-2)Gal(b1-4)GlcNAc(b1-2)Man(a1-3)[Fuc(a1-2)Gal(b1-4)GlcNAc(b1-2)Man(a1-6)]Man(b1-4)GlcNAc(b1-4)[Fuc(a1-6)]GlcNAc
Summary of the method: as §1

[29] = molecular target: Fuc(a1-2)Gal(b1-4)GlcNAc(b1-2)[Fuc(a1-2)Gal(b1-4)GlcNAc(b1-4)]Man(a1-3)[Fuc(a1-2)Gal(b1-4)GlcNAc(b1-2)Man(a1-6)]Man(b1-4)GlcNAc(b1-4)GlcNAc
Summary of the method: as §1

[30] = molecular target: Fuc(a1-2)Gal(b1-4)GlcNAc(b1-3)Gal(b1-4)GlcNAc
Summary of the method: as §1

B1: Gal 8 (Mus musculus), Q9JL15 (protein)
chain: MGGSHHHHHHGMASMLSLNNLQNIIYNPIIPYVGTITEQLKPGSLIVIRGHVPKDSERFQVDFQLGNSLKPRADVAFHFNPRFKRSSCIVCNTLTQEKWGWEEITYDMPFRKEKSFEIVFMVLKNKFQVAVNGRHVLLYAHRISPEQIDTVGIYGKVNIHSIGFRFSSASALPHTLGDLQSMETSALGLTQINRENIQKPGKLQLSLPFEARLNASMGPGRTVVIKGEVNTNARSFNVDLVAGKTRDIALHLNPRLNVKAFVRNSFLQDAWGEEERNITCFPFSSGMYFEMIIYCDVREFKVAINGVHSLEYKHRFKDLSSIDTLSVDGDIRLLDVRSW
Which results are given for B1?
glycan array binding signal (z-score) [1]: -0.535; glycan array binding signal (z-score) [2]: -0.469; glycan array binding signal (z-score) [3]: 0.634; glycan array binding signal (z-score) [4]: 1.23; glycan array binding signal (z-score) [5]: -0.425; glycan array binding signal (z-score) [6]: -0.294; glycan array binding signal (z-score) [7]: -0.259; glycan array binding signal (z-score) [8]: 0.14; glycan array binding signal (z-score) [9]: 0.598; glycan array binding signal (z-score) [10]: -0.102; glycan array binding signal (z-score) [11]: 0.088; glycan array binding signal (z-score) [12]: -0.027; glycan array binding signal (z-score) [13]: 0.621; glycan array binding signal (z-score) [14]: 0.195; glycan array binding signal (z-score) [15]: -0.083; glycan array binding signal (z-score) [16]: 2.44; glycan array binding signal (z-score) [17]: -0.546; glycan array binding signal (z-score) [18]: -0.516; glycan array binding signal (z-score) [19]: -0.531; glycan array binding signal (z-score) [20]: -0.369; glycan array binding signal (z-score) [21]: -0.161; glycan array binding signal (z-score) [22]: -0.502; glycan array binding signal (z-score) [23]: 0.021; glycan array binding signal (z-score) [24]: 0.2; glycan array binding signal (z-score) [25]: -0.245; glycan array binding signal (z-score) [26]: -0.422; glycan array binding signal (z-score) [27]: 0.461; glycan array binding signal (z-score) [28]: 0.051; glycan array binding signal (z-score) [29]: 0.33; glycan array binding signal (z-score) [30]: 0.746
